Source: publication PMC12136788
The other results are listed elsewhere or left out.

T1: UNK ZnF1-3 (human, UniProt Q9C0B0 31-174)
T1 sequence: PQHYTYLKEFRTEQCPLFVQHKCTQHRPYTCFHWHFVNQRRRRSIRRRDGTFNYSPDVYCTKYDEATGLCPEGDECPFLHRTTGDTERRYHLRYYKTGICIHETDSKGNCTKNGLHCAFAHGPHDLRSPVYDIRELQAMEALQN

B1: chr2:59185810:59185811:+_ENSMUSG00000026991_ENSMUST00000151452|mus_mus|FALSE|FALSE (ssRNA)
RNA: GGGAGUUCUACAGUCCGACGAUCCCCAUCCUUUUUGUAAAUGCUCCGGAGGUCCCGGUACUGCCAUAAUGUAUUCAAGACCUGGGCUGCCGCCUUCACCACUUUCAGAGAGGAUCUGUCUCCUCUGCCUUUGGUUAUGUUCACCAACAGAGGAUUGAGCAUCA
B2: chr1:151373778:151373779:+_ENSG00000159377_ENST00000290541|hu_hu|FALSE|FALSE (ssRNA)
RNA: GGGAGUUCUACAGUCCGACGAUCAAACCGGUUGUAAGAACGGGCAUCUCGGUAGUACAGCACUCGCAUGCAGCGUUCUACUAAGUCGCGGGCCUCGGUCUGGCUUAGCACUGGCUGCUUCUCCAGAACUUCUCGCAGCAGAGGCAACAGAGGAUUGAGCAUCA
B3: chr10:33190432:33190433:-_ENSG00000150093_ENST00000302278|hu_mus|hu_hu_hu_mus_True|1_28 (ssRNA)
RNA: GGGAGUUCUACAGUCCGACGAUCUACAUUUUCCAAACCUGCAUGUGAAUAAAACCCUGGCCACAGAGCCCCAAAACUACCCUACUGUGACUAAGAUGCUGCUGCUGUUGCAUUCAGGUUGCAAAAUCCGCCUGAGUCAGUACUCAACAGAGGAUUGAGCAUCA
B4: chr12:39763582:39763583:-_ENSG00000139116_ENST00000544797|hu_mus|hu_hu_hu_mus_False|58_88 (ssRNA)
RNA: GGGAGUUCUACAGUCCGACGAUCCUCUAGGAACUGGGCAUUCACUUUAAAAUCUGGAGGGGGCAGCCCGUUUUUAAUUGCUAUGUGCUUUUUCUCAUCAAUACUCUUGAACAGGUGUCUAACAGCACGAGAGAUGAUGCCCUGCAACAGAGGAUUGAGCAUCA
B5: chrM:5821:5822:+_ENSMUSG00000064351_ENSMUST00000082402|mus_mus|motif|central (ssRNA)
RNA: GGGAGUUCUACAGUCCGACGAUCCUGUGUUAUGGCUGGGGGUUUCAUGUUGAUAAUAGUGGUAAUAAAAUUAAUUGCACCGGAAAUAGAUGACACUCCAGCUAAAUGAAGGGAGAAAAUUGUUAGGUCUACUGAUGCUCCUGCCAACAGAGGAUUGAGCAUCA
B6: chr7:149068622:149068623:-_ENSMUSG00000025139_ENSMUST00000001950|mus_mus|motif|central (ssRNA)
RNA: GGGAGUUCUACAGUCCGACGAUCAGACAGGUACUGAGUGAGGUUCCUGCUCUGCAGUGUCUGCAGUCUGCUGGUAACACGGAGUGGACCACUUAAGGAGGUUCUGCCUGCCUGACUCAUCCACCCUGCAAGAGGGCAUCUGCUCAACAGAGGAUUGAGCAUCA
B7: chrX:129364583:129364584:-_ENSG00000056277_ENST00000370978|hu_mus|FALSE|FALSE (ssRNA)
RNA: GGGAGUUCUACAGUCCGACGAUCAGUCUUCUGGCUUUCCUCAAUAGUUCCUUCAUGUCUUCCAUAAUAAAAAUCACUGACAAGCAUGAUCAGUUUUUCUUUAUCUGAGUCAGUGGUAGCUUUGCUUACAGCCUUUGAAUUUUCCAACAGAGGAUUGAGCAUCA
B8: chr16:32084594:32084595:-_ENSMUSG00000023791_ENSMUST00000096109|perfect_dup|motif|central (ssRNA)
RNA: GGGAGUUCUACAGUCCGACGAUCAGGAAGCAUUUAACUACAUAAAACUUAUAGGGAAAAAUGGCCAUAUUUGAAAACUGCGGCAAGGAUCAAUGUAGAGCACAGGAUUGUAAUGAGCAGAGUCACAGAACAUACUAGAGAGGUCAACAGAGGAUUGAGCAUCA
B9: 38794346_38796509_1608_CDS_ENSG00000006715_ENST00000395969|human|control|control (ssRNA)
RNA: GGGAGUUCUACAGUCCGACGAUCUUUAAUUGAAAUUUUAUCUUCAUUGUCCAAAAGCAUGUCAACAGCUUUCUCUGAAUCAAAAUCCAUUAAUAAAACAAUUUUAUCCUUGAUAGAACUGAAAAGAUUAUGCUUGUGGAUCAACAACAGAGGAUUGAGCAUCA
B10: chr17:56552419:56552420:-_ENSMUSG00000013236_ENSMUST00000086828|mus_mus|mus_mus_mus_hu_False|48_108 (ssRNA)
RNA: GGGAGUUCUACAGUCCGACGAUCAAAGUUUUUUUCUUUUAAAAAAAAUGAAAUGUCACGGGAUACAGUUACACUGAGAGUUUUAAAAAAAAAUAAGAUUCUGGUCCCAGCCCAGUGUCCCCAGGCUGCAGAGCGGGGAGGAGCCAACAGAGGAUUGAGCAUCA
B11: chr9:80921284:80921285:+_ENSG00000135069_ENST00000376588|hu_hu|FALSE|FALSE (ssRNA)
RNA: GGGAGUUCUACAGUCCGACGAUCUCCCUUGACAUCGGGUAUAAAGUCAAACUCCACACCAUGCACCGUCUCAUUUGCGCAAUAAUACACGUAGGAGGCAUCUGGGUUGAGGUUCCAGGUGCUUGGAUCUGGAAUUUUUGUAUACAACAGAGGAUUGAGCAUCA
B12: 71026498_71027082_381_CDS_ENSMUSG00000002010_ENSMUST00000052761|mouse|control|control (ssRNA)
RNA: GGGAGUUCUACAGUCCGACGAUCGUUGUUUCGAGAUUUGUGGGAUGGUGGCAGGUUAUGAUUUGUUUCAAUGUUGCCCUUCAGGGCCACACGGUUCCGGCGGAUGGCCAUGAUGGCAUUGCGGAUGUCCUCCUCAUCAGCGUUCAACAGAGGAUUGAGCAUCA
B13: 62228133_62228761_1639_CDS_ENSMUSG00000020074_ENSMUST00000020268|mouse|control|control (ssRNA)
RNA: GGGAGUUCUACAGUCCGACGAUCGCCUCCAAUGGCCAUGGCUUCAUCCUUGCCUUUCAUUCCCACUAGAAACUUAACAAGUCUAGCAGGAUGCUGAAAACCAUCACGAAGGUCUUGUGGGUCUUCAGCAAGAGCACAUGACUUCAACAGAGGAUUGAGCAUCA
B14: chr13:91842754:91842755:+_ENSMUSG00000003992_ENSMUST00000004094|mus_hu|motif|central (ssRNA)
RNA: GGGAGUUCUACAGUCCGACGAUCAUAUGUUCAAUGCAGCAAGAAUUGCUGAUAUUAUUACUGUGAGAUGACGUGUAAAAAUAACACGGGGAACAGGUAGUAUACAUCAAGACCAACACGAAUGCAUUGAUAAAGAUGGAAAACCAACAGAGGAUUGAGCAUCA
B15: chr4:136876768:136876769:-_ENSMUSG00000006699_ENSMUST00000051477|mus_mus|motif|central (ssRNA)
RNA: GGGAGUUCUACAGUCCGACGAUCAAACAACAAACGUUUGUGGGGAUUUUUGUUUUUUUUUUUAAACAAAGAAAACAAAAACGGGCACUCAUUGCUUUUCAGACAAUACAUAAUUAUUCAAAAUUAACUAUUACUGGAAGGGCACAACAGAGGAUUGAGCAUCA
B16: chr2:115890611:115890612:-_ENSMUSG00000027210_ENSMUST00000102538|mus_hu|FALSE|FALSE (ssRNA)
RNA: GGGAGUUCUACAGUCCGACGAUCCAAUAAACUCCUGGAUGUGUCGUAUAUUUAAUAUCCCAGUCCGGAUAAGAAAGUGAUCUAGGCUGAAGAUUCCUUUUUUUUUUUUCCAAACCAAAGAGACUUCUCCCAAUUCUCCAAUAUCAACAGAGGAUUGAGCAUCA
B17: chr1:35650007:35650008:-_ENSG00000116560_ENST00000357214|hu_mus|FALSE|FALSE (ssRNA)
RNA: GGGAGUUCUACAGUCCGACGAUCCUAACAUCCAUAAAAAGGUAGCUUGCUUACUAAAAUGCCAAGAAUUUAAGUGGUAUCUAAACAAGAAAAGACAAAACCAAACUAGAAUGAAAGCCUAAAUAUCUAAAAUCGGGGUUUUUUCAACAGAGGAUUGAGCAUCA
B18: 53586803_53589017_1067_CDS_ENSG00000023287_ENST00000025008|human|control|control (ssRNA)
RNA: GGGAGUUCUACAGUCCGACGAUCCUUGGCCAUUACUGAAACUGCAGUUCCUAAAUGAGUAAGUUUUAACUUGAUGUCUUCUAUGGACUGCAGAUAAUUUGAAUAAAUACUUUCAAACUUGAAAAGUAGCUUUUGGUAUGAAUUCAACAGAGGAUUGAGCAUCA
B19: chr16:1877921:1877922:+_ENSG00000180185_ENST00000427358|hu_hu|FALSE|FALSE (ssRNA)
RNA: GGGAGUUCUACAGUCCGACGAUCAUUGUGACAUUUAAUAGCCGUUGCUUGCUCUUGUCUUGCUCCCUUCUCUCUCGAAACUUGUUAAGAAAUAACUCAAUAUUCUGGCUUUUCCACUUUAAAUGUCAUACUGACCAGCCCGUGCAACAGAGGAUUGAGCAUCA
B20: chr11:87793471:87793472:-_ENSMUSG00000020483_ENSMUST00000020775|mus_mus|mus_mus_mus_hu_False|28_78 (ssRNA)
RNA: GGGAGUUCUACAGUCCGACGAUCUGGACUUGAAAAUAAAAGAAUAAGCUGGAUCCCCCCACCCCUUACAUUGUCAACCCUACACGAGAGUUUUGAAGGCGACUCAUGAAUCAGCAGAGCUCAAACGGCAAUGACCACCCCACCCAACAGAGGAUUGAGCAUCA
B21: chr12:111951244:111951245:-_ENSG00000204842_ENST00000535949|hu_mus|FALSE|FALSE (ssRNA)
RNA: GGGAGUUCUACAGUCCGACGAUCCCUUGGAACCCCACUGACCACUGAGGACCACGUUCCCCCUGCAGGACUGGUCCUUGCCACUGGAGGAGCAGCUGCUUCACUUGGGGGAUUGUGGGAUACAAAUUCUAGGCCACUAGACAUCAACAGAGGAUUGAGCAUCA
B22: chr5:23024286:23024287:-_ENSMUSG00000062604_ENSMUST00000088392|mus_mus|FALSE|FALSE (ssRNA)
RNA: GGGAGUUCUACAGUCCGACGAUCGCAAGCUGUACUCCAAAUGUCUGCAGGUGUGCUGUAGCCUGCUCCUAUUAAAACCUCUAUGGACCUAUACUGACGUGUCUGGAUAUCCUCUGUGAAAUGUUUAUGCACCCAACAAGCAUUCAACAGAGGAUUGAGCAUCA

biological target: T1, UNK ZnF1-3; experiment: nsRBNS (natural sequence RNA bind-n-seq); RBNS binding buffer (assumed for nsRBNS): 25 mM Tris pH 7.5, 150 mM KCl, 3 mM MgCl2, 0.01% Triton X-100, 500 ug/ml BSA, 20 U/ml SUPERase-In, 4 C; UNK is unkempt and MSI1 is Musashi-1; names of the RNAs are library labels; protein concentration not given here; high values mean tight binding

Point of comparison: B19, binding signal 0.711 enrichment R. Against it:
- B1 — higher, 0.774 enrichment R
- B2 — higher, 1.09 enrichment R
- B3 — higher, 1.12 enrichment R
- B4 — higher, 1.98 enrichment R
- B5 — higher, 1.77 enrichment R
- B6 — higher, 1.05 enrichment R
- B7 — higher, 0.725 enrichment R
- B8 — higher, 1.46 enrichment R
- B9 — higher, 0.856 enrichment R
- B10 — higher, 2.28 enrichment R
- B11 — lower, 0.708 enrichment R
- B12 — lower, 0.496 enrichment R
- B13 — lower, 0.684 enrichment R
- B14 — higher, 1.09 enrichment R
- B15 — higher, 0.761 enrichment R
- B16 — lower, 0.706 enrichment R
- B17 — higher, 1.13 enrichment R
- B18 — higher, 0.716 enrichment R
- B20 — higher, 1.46 enrichment R
- B21 — higher, 0.788 enrichment R
- B22 — higher, 0.97 enrichment R
